# Reference: the supplement of paper PMC12632987
# Over roughly 2,300 sequences, “median log2 fold change of GCK-ALFA target abundance (FLAG IP / Myc IP barcode read proportion)” has its median near 0.095; the lowest 2% begin near -0.47. This is one part of the list.
# B1: LC3A_28_771 (protein)
# chain: MDIEEEGRRALEEAREAAARGEEAVITLTVPEGATQEDIEKAIKALEEIAEILKDMPRASIVIDVESGVEQENLDKLAKAAEELEKKYPNLTVIIALDEE
# B2: LC3A_free_46_2332 (protein)
# chain: MLVVVEVDVLAPDKETAEAFAEELRRLIEERLKEAGIEAEVEVELEEAEDGKHFRVLVKVRIKDPNADPEEVANLVVDAIDEAAEKHGLSYIISVEIEEL
# B3: LC3A_free_46_2294 (protein)
# chain: YIVEIDIDVTGLTKEKAEKLKEELTKEIEKLAEELGLEVEIEVEIEKNEDGTYLVRIRITVKAETLELAKKAQDEIIDIVDKLAEKYGADAVISYEIEEA
# B4: LC3A_28_1068 (protein)
# chain: SAIDKQLEAALKEAKEAAAKGEEATITLTIGKDATEEDVEKVLKTMEEIAEINKDLPSVSIIVDVDNENQWEVTKKVSEKGDELEKKYPHVNVIIALDEE
# B5: LC3A_free_0_2108 (protein)
# chain: TTMVVEVVAISKEKLSEEEIKKAKEELEKKAEEISKKYGVKTEVSVSEVDGRAVFTLTVRGEGLSLDTALEIEDELSDHVEKVFKELGKEATIFSSVYRE
# B6: LC3A_free_39_2243 (protein)
# chain: SAEEEREAEEEILELAAEEGEEARRLAEEILEILRGRPEAVKELLKLLKELKENGGDVLEALRRALEVAERLRAAGASQEEIAEAIIEELRDELNLIPLD
# B7: LC3A_free_39_2288 (protein)
# chain: SMEELEKAVKRLAELLDKIEGVTEEEKQTILEAAKKSLETAKAILEALETIEKDGGDVAEAAKRIAAKIKELEAAGKSLEEMTEEIIALTKDLVNLIPID
# B8: LC3A_45_1948 (protein)
# chain: MWEATVDVLVPAEDFDAAVAVLRREAERLEREEGVEVELDEEALAAARAEAEAEGEALLTVRVRHEDEEVALDAADRIADALLAELSPSVAVAISVERVP
# B9: LC3A_3_1740 (protein)
# chain: MAERLAAARARLEALGLSPEVVAAALRVVEALLAKGYERAVETLLELLAEAAGLPDDILLAMLEDILRRVETEDLSEEEVIKLIEEEFRVARAEAEIEEL
# B10: LC3A_free_39_2190 (protein)
# chain: SMEERERLRKEILELAAEEGEEAKELAEELIKLIGDEEERLRELLELLKELKEAGVDLKEALEEALELAKKLKEEGKSREEIFEEVKALLRDKINLIPID
# B11: LC3A_3_1417 (protein)
# chain: LEAERAAALAALAAAGHSPATLAAVDELVALLAERGAEEAARRALEAVLAAADISSELLLEVLEEAVRLLTEEGLSPEEVLERLEEELRIARNEQEIEEL
# B12: LC3A_28_814 (protein)
# chain: MSKEEIIEEIRRQAKEAEESDDTVLLNVTIDGTITPEEAKEIMEVVREESERLSKKRKVAVVVDLEEPISQEVIDLIADMAEEIEKELPNVSVVIALPES
# B13: LC3A_free_39_2206 (protein)
# chain: SMEEFEKAAEEILKIAKEEGEEALKAAKELLELLDGNLEAAKAVLEKLKEIKENGGDVLEALKAMLEVARKAKEEGLSPEELKELIKEEADVYVNLIPID
# B14: LC3A_102_154 (protein)
# chain: SAEEKIEEAFEEALRELEEAVEEEEHLSEEEKEEALRLARRALEATRENAITEEQHGFVDLVALDERDEALERLRELSPELARLTEEKAEELRKLIKELS
# B15: LC3A_28_1089 (protein)
# chain: SALEAQLAAALAEARAARDAGVEATLTITVGGDATEADIAKLKATLTEIAEIAKELPRLAVVINLTGPNAQAKATEISKHAEELEKEYPNLTVIIALDED
# B16: LC3A_23_615 (protein)
# chain: KYRLEVTIDIIVPKEEAEATVAALRATLEAVLAANADKIIEHELEVELEELEDGTTLITIELTVLIDGDKAEAEAIANEIVSAVDATAPDAVISAEVSKV
# B17: LC3A_3_1566 (protein)
# chain: LDKEVEEALKELKEAGASEEVLKKVKEAAELLKEKGYDKALKTFIEEMKKLKDAPDEILLDFAEEVIELIKNEDLSEEELSKKIKELARLAKLESEIIEL
# B18: LC3A_28_699 (protein)
# chain: SATEKEIERAKKIAEEAIEKGEDALIELTISPETTAEEVDKILATIEELAKKMSKVGKLYVVVDVESGVDQANIDKIADRLDELEAEIPNLTSIIALDEE
# B19: LC3A_3_1568 (protein)
# chain: MEEKIKKALERLREAGFSEEVIKAAEEAFRALAEKGLEESMEKVLEAFLKMKNAPEELLIDFARDIKEIVETSKGNKEEIEKKIEEEIKIYLSESEIIEL
# Target: MAP1LC3A, Q9H492
# Assay: median log2 fold change of GCK-ALFA target abundance (FLAG IP / Myc IP barcode read proportion) (log2 ratio); each designed protein is fused to an ALFA-tag nanobody in HEK293 cells to bring the named protein to FLAG-tagged glucokinase (GCK); Myc marks an untargeted standard; higher = target protein stabilised (more abundant)
# Details: target protein: 3xFLAG-MCP-GCK-ALFA reporter; HEK293 landing pad (RPLP)
# Procedure, shortened: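 HEK293 landing-pad cells received a recombined binder library fused to the ALFA nanobody and were induced with 2 μg mL^−1 doxycycline, then transfected with a plasmid encoding a FLAG-tagged target and a Myc-tagged standard. Lysates were collected after 48 h for anti-FLAG and anti-Myc immunoprecipitation, and the circular RNA barcodes were reverse transcribed, amplified and sequenced. Target abundance for each binder is the median log2 ratio of FLAG to Myc barcode read proportions. Barcodes had to reach a proportion of at least 10^−7 in both replicates, each binder needed at least 3 barcodes per replicate, a pseudocount of 10^−6 was applied, and the two replicates were pooled.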
row,Binder,median log2 fold change
1,B1,-0.073
2,B2,0.0733
3,B3,0.0448
4,B4,-0.0226
5,B5,0.0605
6,B6,0.27
7,B7,0.326
8,B8,-0.214
9,B9,0.278
10,B10,0.42
11,B11,0.217
12,B12,-0.43
13,B13,0.218
14,B14,-0.0532
15,B15,0.274
16,B16,-0.336
17,B17,0.0841
18,B18,0.0401
19,B19,0.521
